PMC10629583, “Specific inhibition of an anticancer target, polo-like kinase 1, by allosterically dismantling its mechanism of substrate recognition” (Proceedings of the National Academy of Sciences of the …, 2023)

Assays:
Assay in all cases: PDSP off-target binding screen
[1] = biological target: T1, 5-HT3 (Homo sapiens, UniProt P46098); conditions: for inhibition at 10 µM: read-out: Primary screen AVE(%inhib)±SD; for Ki: read-out: Secondary screen Ki
T1 construct: NIMH Psychoactive Drug Screening Program (UNC)
T1 sequence (P46098 24-478): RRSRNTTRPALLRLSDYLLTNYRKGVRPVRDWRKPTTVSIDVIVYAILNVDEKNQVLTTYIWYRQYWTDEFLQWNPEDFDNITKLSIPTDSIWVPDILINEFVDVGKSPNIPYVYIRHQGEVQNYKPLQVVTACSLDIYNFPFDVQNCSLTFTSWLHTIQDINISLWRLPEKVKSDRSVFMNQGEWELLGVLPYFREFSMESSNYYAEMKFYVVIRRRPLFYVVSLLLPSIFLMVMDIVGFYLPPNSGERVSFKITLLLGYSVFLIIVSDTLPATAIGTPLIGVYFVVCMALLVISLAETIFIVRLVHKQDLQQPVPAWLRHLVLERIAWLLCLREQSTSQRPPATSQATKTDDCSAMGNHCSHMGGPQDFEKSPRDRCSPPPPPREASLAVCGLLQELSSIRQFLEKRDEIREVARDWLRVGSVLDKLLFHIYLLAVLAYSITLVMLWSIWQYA
Description: (§1) PDSP no. Compound Interactions (Ki, µM)
(§2) 60477 Allopole-A None observed.
(§3) trigger a secondary screen at that receptor.

[2] = biological target: T2, 5-HT5A (Homo sapiens, UniProt P47898); conditions: for inhibition at 10 µM: read-out: Primary screen AVE(%inhib)±SD; for Ki: read-out: Secondary screen Ki
T2 construct: NIMH Psychoactive Drug Screening Program (UNC)
Description: as §1, §2, §3

[3] = tested on: BZP Rat brain site; conditions: for Primary screen AVE(%inhib)±SD: 10 µM; for Ki: read-out: Secondary screen Ki
Description: as §1, §2, §3

[4] = biological target: Beta3 (Homo sapiens, UniProt P13945); conditions: for inhibition at 10 µM: read-out: Primary screen AVE(%inhib)±SD; for Ki: read-out: Secondary screen Ki
Description: as §1, §2, §3

[5] = biological target: D1 (Homo sapiens, UniProt P21728); conditions: for inhibition at 10 µM: read-out: Primary screen AVE(%inhib)±SD; for Ki: read-out: Secondary screen Ki
Description: as §1, §2, §3

[6] = biological target: D2 (Homo sapiens, UniProt P14416); conditions: for inhibition at 10 µM: read-out: Primary screen AVE(%inhib)±SD; for Ki: read-out: Secondary screen Ki
Description: as §1, §2, §3

[7] = biological target: D3 (Homo sapiens, UniProt P35462); conditions: for inhibition at 10 µM: read-out: Primary screen AVE(%inhib)±SD; for Ki: read-out: Secondary screen Ki
Description: as §1, §2, §3

[8] = biological target: D5 (Homo sapiens, UniProt P21918); conditions: for inhibition at 10 µM: read-out: Primary screen AVE(%inhib)±SD; for Ki: read-out: Secondary screen Ki
Description: as §1, §2, §3

[9] = biological target: H3 (Homo sapiens, UniProt Q9Y5N1); conditions: for inhibition at 10 µM: read-out: Primary screen AVE(%inhib)±SD; for Ki: read-out: Secondary screen Ki
Description: as §1, §2, §3

[10] = biological target: H4 (Homo sapiens, UniProt Q9H3N8); conditions: for inhibition at 10 µM: read-out: Primary screen AVE(%inhib)±SD; for Ki: read-out: Secondary screen Ki
Description: as §1, §2, §3

[11] = biological target: KOR (Homo sapiens, UniProt P41145); conditions: for inhibition at 10 µM: read-out: Primary screen AVE(%inhib)±SD; for Ki: read-out: Secondary screen Ki
Description: as §1, §2, §3

[12] = biological target: M3 (Homo sapiens, UniProt P20309); conditions: for inhibition at 10 µM: read-out: Primary screen AVE(%inhib)±SD; for Ki: read-out: Secondary screen Ki
Description: as §1, §2, §3

[13] = biological target: PBR (Rattus norvegicus, UniProt P16257); conditions: for inhibition at 10 µM: read-out: Primary screen AVE(%inhib)±SD; for Ki: read-out: Secondary screen Ki
Description: as §1, §2, §3

[14] = tested on: GABAA; set-up: species or system human; conditions: for Primary screen AVE(%inhib)±SD: 10 µM; for Ki: read-out: Secondary screen Ki
Description: as §1, §2, §3

Sequence of D1 (P21728 whole entry): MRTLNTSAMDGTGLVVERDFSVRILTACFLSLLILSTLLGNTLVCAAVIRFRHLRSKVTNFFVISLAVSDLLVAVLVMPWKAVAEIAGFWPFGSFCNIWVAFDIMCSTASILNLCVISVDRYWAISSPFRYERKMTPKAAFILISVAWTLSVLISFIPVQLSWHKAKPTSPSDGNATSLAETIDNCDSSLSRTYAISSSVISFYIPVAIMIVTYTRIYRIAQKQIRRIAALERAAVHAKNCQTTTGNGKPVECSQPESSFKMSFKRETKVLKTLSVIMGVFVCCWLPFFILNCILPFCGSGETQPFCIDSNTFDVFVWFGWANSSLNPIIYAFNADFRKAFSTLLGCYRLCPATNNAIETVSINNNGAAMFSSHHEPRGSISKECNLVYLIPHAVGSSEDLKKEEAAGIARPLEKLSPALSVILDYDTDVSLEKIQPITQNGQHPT
Sequence of D5 (P21918 whole entry): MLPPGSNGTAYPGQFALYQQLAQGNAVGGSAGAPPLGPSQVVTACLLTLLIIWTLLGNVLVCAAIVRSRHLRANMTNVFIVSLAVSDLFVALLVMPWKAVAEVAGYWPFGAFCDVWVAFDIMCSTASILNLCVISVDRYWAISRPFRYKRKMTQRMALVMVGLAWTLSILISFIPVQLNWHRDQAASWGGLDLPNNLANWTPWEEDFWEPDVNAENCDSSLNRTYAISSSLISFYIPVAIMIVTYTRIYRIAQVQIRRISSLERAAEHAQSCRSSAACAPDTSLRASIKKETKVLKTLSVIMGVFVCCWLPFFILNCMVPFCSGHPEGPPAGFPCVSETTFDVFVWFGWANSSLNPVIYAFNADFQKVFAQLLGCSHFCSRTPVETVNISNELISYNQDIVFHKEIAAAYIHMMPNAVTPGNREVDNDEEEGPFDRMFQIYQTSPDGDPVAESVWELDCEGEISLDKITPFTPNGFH
Sequence of M3 (P20309 whole entry): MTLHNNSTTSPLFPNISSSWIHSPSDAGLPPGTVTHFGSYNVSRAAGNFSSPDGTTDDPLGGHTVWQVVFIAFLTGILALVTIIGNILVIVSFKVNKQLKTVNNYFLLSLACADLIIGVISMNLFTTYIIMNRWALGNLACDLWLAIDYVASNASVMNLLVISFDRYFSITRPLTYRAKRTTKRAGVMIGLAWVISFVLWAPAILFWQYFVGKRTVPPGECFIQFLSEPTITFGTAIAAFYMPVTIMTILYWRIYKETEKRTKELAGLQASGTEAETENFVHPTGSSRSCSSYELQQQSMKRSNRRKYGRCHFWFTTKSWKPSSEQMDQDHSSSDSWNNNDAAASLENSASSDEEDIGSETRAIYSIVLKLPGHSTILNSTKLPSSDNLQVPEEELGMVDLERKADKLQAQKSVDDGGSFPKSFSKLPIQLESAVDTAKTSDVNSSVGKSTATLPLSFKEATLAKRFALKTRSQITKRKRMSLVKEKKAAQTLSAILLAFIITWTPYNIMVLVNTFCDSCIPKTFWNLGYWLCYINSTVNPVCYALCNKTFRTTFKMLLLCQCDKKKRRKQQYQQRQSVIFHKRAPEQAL
T2 sequence (P47898 whole entry): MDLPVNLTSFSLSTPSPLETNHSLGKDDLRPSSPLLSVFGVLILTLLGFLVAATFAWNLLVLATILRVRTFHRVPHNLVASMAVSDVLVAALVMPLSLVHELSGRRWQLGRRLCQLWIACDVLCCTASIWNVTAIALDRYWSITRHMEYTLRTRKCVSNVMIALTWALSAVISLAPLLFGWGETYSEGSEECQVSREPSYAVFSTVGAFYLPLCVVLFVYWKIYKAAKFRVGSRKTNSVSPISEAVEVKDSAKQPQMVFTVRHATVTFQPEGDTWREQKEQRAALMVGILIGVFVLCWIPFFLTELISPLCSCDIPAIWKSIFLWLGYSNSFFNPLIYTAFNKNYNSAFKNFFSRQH
Sequence of KOR (P41145 whole entry): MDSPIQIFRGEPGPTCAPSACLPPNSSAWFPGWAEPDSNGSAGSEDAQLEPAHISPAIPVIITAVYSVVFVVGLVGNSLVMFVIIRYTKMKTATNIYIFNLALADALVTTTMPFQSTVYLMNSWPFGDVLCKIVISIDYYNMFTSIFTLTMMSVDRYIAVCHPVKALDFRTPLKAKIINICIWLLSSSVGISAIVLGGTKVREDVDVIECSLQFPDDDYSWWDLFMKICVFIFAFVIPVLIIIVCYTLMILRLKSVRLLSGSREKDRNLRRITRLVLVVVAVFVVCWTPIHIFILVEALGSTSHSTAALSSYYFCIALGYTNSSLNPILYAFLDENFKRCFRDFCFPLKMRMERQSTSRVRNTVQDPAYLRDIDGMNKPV
Sequence of D3 (P35462 whole entry): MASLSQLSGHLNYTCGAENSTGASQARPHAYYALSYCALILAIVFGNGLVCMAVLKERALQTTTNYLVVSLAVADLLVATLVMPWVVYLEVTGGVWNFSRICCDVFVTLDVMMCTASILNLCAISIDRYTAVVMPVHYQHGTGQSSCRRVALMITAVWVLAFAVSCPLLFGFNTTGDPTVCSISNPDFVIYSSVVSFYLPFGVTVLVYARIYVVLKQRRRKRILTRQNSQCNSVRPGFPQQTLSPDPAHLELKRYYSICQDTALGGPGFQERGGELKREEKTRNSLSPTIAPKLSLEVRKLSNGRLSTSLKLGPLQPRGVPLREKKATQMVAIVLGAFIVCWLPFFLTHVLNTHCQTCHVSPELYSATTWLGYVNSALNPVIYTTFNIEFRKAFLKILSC
Sequence of Beta3 (P13945 whole entry): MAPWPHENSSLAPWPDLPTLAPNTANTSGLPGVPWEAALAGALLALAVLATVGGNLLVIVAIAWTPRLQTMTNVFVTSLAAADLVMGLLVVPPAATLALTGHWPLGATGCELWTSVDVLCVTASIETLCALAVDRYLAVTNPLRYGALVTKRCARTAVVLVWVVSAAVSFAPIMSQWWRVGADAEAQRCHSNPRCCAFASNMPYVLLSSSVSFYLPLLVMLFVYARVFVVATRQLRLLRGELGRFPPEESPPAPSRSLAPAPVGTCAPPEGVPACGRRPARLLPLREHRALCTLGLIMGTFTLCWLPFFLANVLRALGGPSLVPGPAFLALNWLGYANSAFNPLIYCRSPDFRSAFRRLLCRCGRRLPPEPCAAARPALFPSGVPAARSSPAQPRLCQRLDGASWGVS
Sequence of H4 (Q9H3N8 whole entry): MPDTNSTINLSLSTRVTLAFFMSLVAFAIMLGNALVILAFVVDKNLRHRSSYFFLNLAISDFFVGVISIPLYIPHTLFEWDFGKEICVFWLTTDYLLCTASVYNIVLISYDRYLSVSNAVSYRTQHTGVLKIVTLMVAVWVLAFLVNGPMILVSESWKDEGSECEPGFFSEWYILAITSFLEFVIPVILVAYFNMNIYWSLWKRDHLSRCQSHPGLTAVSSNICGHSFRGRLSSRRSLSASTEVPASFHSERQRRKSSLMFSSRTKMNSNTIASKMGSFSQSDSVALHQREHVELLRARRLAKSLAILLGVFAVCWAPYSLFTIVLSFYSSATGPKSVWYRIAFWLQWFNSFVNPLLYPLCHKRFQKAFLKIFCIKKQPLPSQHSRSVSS
Sequence of H3 (Q9Y5N1 whole entry): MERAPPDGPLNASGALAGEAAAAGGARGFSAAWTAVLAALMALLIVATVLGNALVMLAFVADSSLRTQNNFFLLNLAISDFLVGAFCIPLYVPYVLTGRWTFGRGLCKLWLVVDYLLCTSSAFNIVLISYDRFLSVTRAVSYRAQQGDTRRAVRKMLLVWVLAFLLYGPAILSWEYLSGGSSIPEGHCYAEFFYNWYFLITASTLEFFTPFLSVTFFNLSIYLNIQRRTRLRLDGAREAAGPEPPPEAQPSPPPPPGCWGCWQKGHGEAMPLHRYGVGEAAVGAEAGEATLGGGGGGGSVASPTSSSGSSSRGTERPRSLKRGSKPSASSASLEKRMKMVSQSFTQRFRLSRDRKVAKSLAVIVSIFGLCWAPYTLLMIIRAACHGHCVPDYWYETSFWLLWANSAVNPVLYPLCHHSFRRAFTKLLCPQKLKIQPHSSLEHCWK
Sequence of D2 (P14416 whole entry): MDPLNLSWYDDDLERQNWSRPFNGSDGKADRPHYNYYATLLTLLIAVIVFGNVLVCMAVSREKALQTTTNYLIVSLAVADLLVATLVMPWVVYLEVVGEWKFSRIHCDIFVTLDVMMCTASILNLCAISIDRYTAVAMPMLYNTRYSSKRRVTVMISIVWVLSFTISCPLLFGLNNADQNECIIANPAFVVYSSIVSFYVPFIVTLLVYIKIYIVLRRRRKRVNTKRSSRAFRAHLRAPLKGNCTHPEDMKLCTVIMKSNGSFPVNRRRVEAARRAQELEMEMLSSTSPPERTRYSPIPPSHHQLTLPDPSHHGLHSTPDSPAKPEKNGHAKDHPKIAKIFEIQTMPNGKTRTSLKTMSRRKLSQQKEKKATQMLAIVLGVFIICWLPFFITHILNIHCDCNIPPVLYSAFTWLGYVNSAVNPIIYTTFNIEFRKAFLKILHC

| Compound | inhibition at 10 µM [1] | Ki [1] | inhibition at 10 µM [2] | Ki [2] | Primary screen AVE(%inhib)±SD [3] | Ki [3] | inhibition at 10 µM [4] | Ki [4] | inhibition at 10 µM [5] | Ki [5] | inhibition at 10 µM [6] | Ki [6] | inhibition at 10 µM [7] | Ki [7] | inhibition at 10 µM [8] | Ki [8] | inhibition at 10 µM [9] | Ki [9] | inhibition at 10 µM [10] | Ki [10] | also measured |
| --- | --- | --- | --- | --- | --- | --- | --- | --- | --- | --- | --- | --- | --- | --- | --- | --- | --- | --- | --- | --- | --- |
| O=c1c2sc(Cl)cc2n2c(=S)[nH]nc2n1CC1CC1 [Allopole-A] | -3.8 ± 3.1% | > 10 µM | -1.4 ± 14.4% | > 10 µM | 2.3±21.8% | > 10 µM | 17.9 ± 8.6% | > 10 µM | -17.2 ± 25% | > 10 µM | -27.4 ± 13.1% | > 10 µM | -7 ± 21.7% | > 10 µM | 28.7 ± 10.7% | > 10 µM | -18.5 ± 3.8% | > 10 µM | -4.5 ± 11.4% | > 10 µM | inhibition at 10 µM [11]: -0.3 ± 8.7%; Ki [11]: > 10 µM; inhibition at 10 µM [12]: 7.5 ± 45.6%; Ki [12]: > 10 µM; inhibition at 10 µM [13]: 5.3 ± 8.3%; Ki [13]: > 10 µM; Primary screen AVE(%inhib)±SD [14]: 35.7±11.1%; Ki [14]: > 10 µM |
| Cn1cnc([N+](=O)[O-])c1Sc1nnc2n(CC3CC3)c(=O)c3sc(Cl)cc3n12 [Allopole] | -0.8 ± 4.6% | > 10 µM | 24.5 ± 9.3% | > 10 µM | 9.5±7.6% | > 10 µM | 30.8 ± 22.8% | > 10 µM | 21.5 ± 6.8% | > 10 µM | 3.6 ± 6.6% | > 10 µM | 12.8 ± 12.8% | > 10 µM | 20.9 ± 9.5% | > 10 µM | -12.5 ± 7.9% | > 10 µM | 8.2 ± 3.1% | > 10 µM | inhibition at 10 µM [11]: 3.7 ± 4.1%; Ki [11]: > 10 µM; inhibition at 10 µM [12]: 48.3 ± 21.9%; Ki [12]: > 10 µM; inhibition at 10 µM [13]: -2.1 ± 5.3%; Ki [13]: > 10 µM; Primary screen AVE(%inhib)±SD [14]: 33.3±4.2%; Ki [14]: > 10 µM |
